Data: publication PMC4336329 (PLoS ONE, 2015)
Screen size: about 310,000 compounds; about 2,200 (0.71%) showed an effect of 50% or more. The effect is printed as a negative number. The list shows a part of the results.

What follows are molecules tested against human ether-à-go-go-related gene (hERG) potassium channel (human, UniProt Q12809) (assay: primary screen, population patch clamp on CHO cells stably expressing hERG).
Chain of human ether-à-go-go-related gene (hERG) potassium channel (Q12809 whole entry, looked up): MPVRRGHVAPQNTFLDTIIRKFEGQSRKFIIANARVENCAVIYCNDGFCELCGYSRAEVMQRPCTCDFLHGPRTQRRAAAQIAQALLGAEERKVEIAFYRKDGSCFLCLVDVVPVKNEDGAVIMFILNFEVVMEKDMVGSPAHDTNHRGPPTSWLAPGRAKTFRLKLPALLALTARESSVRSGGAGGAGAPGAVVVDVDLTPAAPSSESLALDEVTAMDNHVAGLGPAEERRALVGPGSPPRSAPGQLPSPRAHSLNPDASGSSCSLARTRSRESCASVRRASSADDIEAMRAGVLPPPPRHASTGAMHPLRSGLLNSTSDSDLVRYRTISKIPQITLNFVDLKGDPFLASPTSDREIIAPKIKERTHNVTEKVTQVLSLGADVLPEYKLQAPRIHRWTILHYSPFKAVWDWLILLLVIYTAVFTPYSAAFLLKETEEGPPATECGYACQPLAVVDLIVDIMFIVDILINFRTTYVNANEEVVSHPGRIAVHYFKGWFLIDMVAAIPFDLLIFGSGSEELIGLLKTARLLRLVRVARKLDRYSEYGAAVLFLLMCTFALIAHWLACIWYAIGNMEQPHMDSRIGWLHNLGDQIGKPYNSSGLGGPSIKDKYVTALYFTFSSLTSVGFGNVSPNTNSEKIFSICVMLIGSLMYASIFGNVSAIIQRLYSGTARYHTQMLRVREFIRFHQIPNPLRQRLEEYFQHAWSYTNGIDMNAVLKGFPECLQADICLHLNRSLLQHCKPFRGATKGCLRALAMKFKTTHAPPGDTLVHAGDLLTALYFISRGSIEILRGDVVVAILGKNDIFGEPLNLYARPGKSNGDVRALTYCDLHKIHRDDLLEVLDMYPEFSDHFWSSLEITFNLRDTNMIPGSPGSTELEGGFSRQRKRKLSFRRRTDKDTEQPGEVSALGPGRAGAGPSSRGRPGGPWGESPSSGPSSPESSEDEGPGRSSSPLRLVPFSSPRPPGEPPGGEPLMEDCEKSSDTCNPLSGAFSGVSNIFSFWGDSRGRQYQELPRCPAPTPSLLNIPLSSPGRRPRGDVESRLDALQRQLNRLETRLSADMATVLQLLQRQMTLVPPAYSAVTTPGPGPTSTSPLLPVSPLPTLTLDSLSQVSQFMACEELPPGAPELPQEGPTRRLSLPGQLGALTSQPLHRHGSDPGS

| Structure (SMILES) | hERG current change (%, negative = inhibition) at 1uM [%] |
| --- | --- |
| COC(=O)CSc1nn(-c2ccc(F)cc2)c(=S)s1 | 9.9 |
| Cc1nc2ccccc2n1CCc1nc2c3ccccc3nc(SCC#N)n2n1 | -0.451 |
| COc1ccc(NC(=O)c2cccnc2)c(OC)c1 | 4.36 |
| CCc1nnc(NCC(=O)N2CCc3ccccc32)s1 | -5.38 |
| O=C(N1CCOCC1)N(Cc1ccccc1)c1ccccn1 | 2.98 |
| CC(C)OC(=O)NCCOC(=O)Nc1ccc(Cl)cc1 | 19.2 |
| O=C(c1cccc(C(F)(F)F)c1)C1CCCN(Cc2cccc(OCCO)c2)C1 (stereo not shown) | -0.556 |
| CCOC(=O)n1c(=O)oc2ccc(Cl)cc21 | 9.61 |
| CC1CN(Cc2c(O)ccc3c(=O)c(-c4ccccc4Cl)coc23)CC(C)O1 (stereo not shown) | 11 |
| O=C(Nc1cc2c(cc1Br)OCCO2)c1cccs1 | 21.4 |
| O=C(CCCO)N/N=C/c1cc(Br)ccc1O | 3.99 |
| Cc1cccc(OCC(=O)Nc2nnc(S(=O)(=O)N3CCCCCC3)s2)c1 | 11 |
| COc1ccc(NC(=O)c2ccco2)cc1NC(=O)c1cc2ccccc2o1 | 8.65 |
| O=C(NC1CCCCC1)N1CCSC1=Nc1ccccc1 | 3.66 |
| COC(=O)Cc1ccc(N(Cc2ccccc2F)S(=O)(=O)c2ccc(C)cc2)cc1 | 9.64 |
| COc1ccc(-c2cn[nH]c2C)cc1OC | 12.1 |
| Cc1ccccc1CC(=O)N1CCCC1 | 4.48 |
| Cc1cccc(Nc2cc(=O)[nH]c(=O)[nH]2)c1C | 6.12 |
| CC(C)c1ccccc1NC(=S)NC(C)c1ccccc1 (stereo not shown) | 5.12 |
| CCCC(=O)c1ccc(CP(=O)(OCC)OCC)o1 | 20.8 |
| COC(=O)c1sccc1NC(=O)Nc1ccc(Cl)c(Cl)c1 | 19.4 |
| COC(=O)c1ccccc1NC(=O)c1noc2c1CC(C(C)(C)C)CC2 (stereo not shown) | 4.8 |

| Structure (SMILES) | hERG current change (%, negative = inhibition) at 1uM [%] |
| --- | --- |
| O=C(NNS(=O)(=O)c1ccc([N+](=O)[O-])cc1)c1ccc2ccccc2c1O | 14.4 |
| CC1CCc2sc(C(=O)NC3CCCCC3)cc2C1 (stereo not shown) | 3.37 |
| CCOC(=O)c1csc(NC(=O)CN2CCOCC2)n1 | 11 |
| O=C(NCc1ccco1)C1CCN(S(=O)(=O)Cc2ccccc2)CC1 | -0.482 |
| O=C(Nc1ccnc(-c2ccncc2)n1)c1ccc(F)cc1 | 10.1 |
| CCOP(=O)(OCC)C(NC(C)=O)C(=O)c1ccccc1 (stereo not shown) | 18.7 |
| COc1ccc2cc(C#N)c(SCC(=O)NNC(=O)Cc3ccccc3)nc2c1 | 10.5 |
| COC(=O)c1ccccc1NC(=O)c1ccccc1N(C)S(C)(=O)=O | 7.1 |
| O=c1[nH]c2ccc(S(=O)(=O)NCc3ccccc3)cc2[nH]1 | 17.5 |
| COc1cccc(N(CC(=O)NCCSCc2ccc(C)cc2)S(C)(=O)=O)c1 | 13.5 |
| CC1=C(C(=O)OCc2ccccc2)C(c2ccc(Br)cc2)NC(=O)N1CCCCCC(=O)O (stereo not shown) | 10.6 |
| CCc1ccc2[nH]c(=O)c(CN(CCN(CC)CC)C(=O)Nc3ccccc3OC)cc2c1 | -50.7 |
| COC(=O)c1cnc(Nc2cccc(C(F)(F)F)c2)c([N+](=O)[O-])c1 | 0.104 |
| COC(=O)C1=C(C)N(c2ccc(F)c(Cl)c2)C(=O)C1 | -1.07 |
| Cc1ccc(-c2n[nH]c(=O)c3ccccc23)cc1S(=O)(=O)NCCO | -1.72 |
| COc1ccc(C(=O)CSc2nccn2C)c(OC)c1 | 7 |
| CC(C)Cn1c(C(C)NC(=O)Cc2ccccc2)nc2ccccc21 (stereo not shown) | 9.17 |
| COc1ccc(-c2nnc(SCC(=O)N3CCC(Cc4ccccc4)CC3)o2)cc1OC | -3.62 |
| C=CCOc1ccccc1NC(=O)CN1C(=O)CNC1=O | 18.7 |
| Cc1nnc(NC(=O)c2ccc(S(=O)(=O)N3CCOCC3)cc2)s1 | 6.78 |
| O=C(C1=C[C@@H]2[C@H]3C(=O)N(c4ccc(Cl)cc4)C(=O)[C@H]3[C@@H](C(=O)c3ccc(Cl)cc3)N2C=C1)c1ccccc1 | 15.2 |
| O=c1nc(/C=C/c2ccc(-c3ccc(F)cc3)o2)cc(C(F)(F)F)[nH]1 | 13 |

| Structure (SMILES) | hERG current change (%, negative = inhibition) at 1uM [%] |
| --- | --- |
| CN1CCN(CC(=O)Nc2cc(N(C)C)nc3ccccc23)CC1.Cl | 16.1 |
| C=CCc1cccc2cc(C(=O)Nc3ccc(F)cc3)c(=O)oc12 | 6.28 |
| O=C(NCc1ccc(Cl)cc1)c1ncn[nH]1 | 6.12 |
| O=C(Nc1cccc(NC(=O)c2cccnc2)c1)c1ccccc1 | 5.98 |
| COc1ccc(/C=C(/CC(=O)Nc2ccc(C)cc2)c2nc3ccccc3s2)cc1 | 10.4 |
| Oc1ccc(C(c2nnnn2CCc2ccccc2)N2CCN(c3nc4ccccc4s3)CC2)cc1 (stereo not shown) | 10.7 |
| CCOC(=O)c1ccc(NC(=S)Nc2ccc(Cl)cn2)cc1 | 6.65 |
| CCOC(=O)C1CCCN(Cc2nc(CC3CC3)no2)C1 (stereo not shown) | 12.5 |
| COc1cc(C(=O)Nc2nnc(Cc3ccccc3)s2)cc(OC)c1OC | 8.52 |
| Cc1cc2ncc(-c3ccccc3)nc2cc1C | 11.4 |
| C=CCn1c(O)c(C(CC)=Nc2ccc(N(C)C)cc2)c(=O)[nH]c1=O | 16.6 |
| CSc1nc(N2CCOCC2)c2c(c1C#N)CCCCC2 | 4.33 |
| COc1cc2cnc(-c3ccccc3)c(-c3ccc(C(F)(F)F)cc3)c2cc1OC | 14.9 |
| Cc1ccc(S(=O)(=O)N2CCC(C(=O)NCCC3=CCCCC3)CC2)c(C)c1 | 2.13 |
| O=C(c1ccc(NC(=O)C(c2ccccc2)c2ccccc2)cc1)c1ccc(C(=O)O)c(C(=O)O)c1 | 13.8 |
| COC(=O)c1ccc(NC(=O)CSc2nnc(C3CC3)n2C)cc1 | 6.77 |
| CCOC(=O)N1C(=O)[C@@](CC)(c2ccccc2)N1C(=O)OCC | 11.1 |
| C#CCOCCOCCOCCNc1nc(N2CCN(C(=O)[C@H]([C@@H](C)CC)n3cc([C@@H](N)CO)nn3)CC2)nc(N2CCN(C(=O)[C@H](Cc3ccc(O)cc3)n3cc([C@@H](N)CC(C)C)nn3)CC2)n1.Cl | -0.522 |
| CN(C)c1ccc(NC(=O)CN2C(=O)c3ccccc3C2=O)cc1 | 14.5 |
| Cc1[nH]c2ccccc2c1CN1CCC(Cc2ccccc2)CC1.O=C(O)C(=O)O | -19.4 |
| CCCn1c(=O)n(C)c(=O)c2c(SCC(=O)Nc3cc(C)on3)nc(C(C)(C)C)nc21 | 4.48 |
| O=C(O)CC(NC(=O)Cc1ccc(Cl)cc1)c1ccco1 (stereo not shown) | 1.41 |

| Structure (SMILES) | hERG current change (%, negative = inhibition) at 1uM [%] |
| --- | --- |
| CC1(OC(=O)c2ccc(Cl)nc2)C(=O)C=C2C=C(c3ccc(C#N)cc3)OC=C2C1=O (stereo not shown) | 8.68 |
| O=C(/C=C/c1ccc2c(c1)OCO2)NCc1ccc(F)cc1 | 11.2 |
| COc1cc(NC(=O)COc2ccccc2C)ccc1NC(=O)c1ccco1 | 12.3 |
| CCN(CC)CCCN=C(C)c1c(O)n(-c2ccccc2)c(=O)[nH]c1=O | -16.4 |
| COc1ccccc1CNCC(=O)Nc1cc(S(=O)(=O)N2CCCCCC2)ccc1Cl | 8.12 |
| COc1ccccc1N1CCN(C(=O)c2sc3ncn(CC(=O)N4CCC(C)CC4)c(=O)c3c2C)CC1 | 7.63 |
| N/C(=N\OC(=O)CCCOc1ccccc1)c1ccc(Br)cc1 | 15.2 |
| NS(=O)(=O)c1ccc(NC(=O)Cn2ncc3c2-c2ccccc2OC3)cc1 | 11.3 |
| Cc1ccc(-c2noc(C3CCCN(C(=O)c4ccccc4Br)C3)n2)o1 (stereo not shown) | -3.01 |
| COc1ccc(-c2ccc3c(N)c(C(=O)c4ccc(OC)c(OC)c4)sc3n2)cc1 | 9.42 |
| CCCN(c1ccc(OCC)cc1)S(=O)(=O)c1ccc2c(c1)CCN2C(=O)CCC(=O)O | 12.5 |
| O=C(COC(=O)Cc1c[nH]c2ccccc12)NC1CCS(=O)(=O)C1 (stereo not shown) | 15.1 |
| Cc1cc(NC(=O)C2CCCN2C(=O)Nc2c(C)cccc2C)ccc1-n1cnnn1 (stereo not shown) | 13.2 |
| COc1cccc(-c2csc(NC(=O)Oc3ccccc3)n2)c1 | -2.87 |
| COc1ccccc1NS(=O)(=O)c1cc(NC(=O)c2cccs2)ccc1N1CCOCC1 | 6.6 |
| Cc1ccccc1N1CC(C(=O)Nc2ccc3c(c2)OCO3)CC1=O (stereo not shown) | 7.11 |
| CCOc1ccc(NC(C)C(=O)N/N=C/c2cccs2)cc1 (stereo not shown) | 11.1 |
| CC(C)CCN(C(=O)Nc1ccc(Cl)cc1)C1CCN(C(C)C)CC1 | -57.6 |
| O=C(c1ccccc1)c1cccc(C(=O)c2ccccc2)c1 | 4.21 |
| CC(=O)Nc1ccc(S(=O)(=O)NCc2nc(-c3ccc(C)cc3)no2)cc1 | 23.3 |
| COCc1nn2c(N)c(-c3ccccc3)cnc2c1-c1ccccc1 | 16.4 |
| Cc1ccc(C(=O)Nc2nccc(-c3cccs3)n2)cc1 | -26 |
